In all, about 33,000 sequences were measured (“E-score (-0.5 to 0.5)”: median about -0.036, highest 2% from about 0.37 on). The list shows a part of the results.
The sequences below were run against T1, Yer064c (UniProt P40041) (assay: PBM E-score (8-mer binding enrichment) (E-score (-0.5 to 0.5)); higher = stronger / more preferred TF binding; most listed sequences are background and not binding sites). Conditions: protein concentration: 200 nM; construct: GST-full length.
T1 sequence: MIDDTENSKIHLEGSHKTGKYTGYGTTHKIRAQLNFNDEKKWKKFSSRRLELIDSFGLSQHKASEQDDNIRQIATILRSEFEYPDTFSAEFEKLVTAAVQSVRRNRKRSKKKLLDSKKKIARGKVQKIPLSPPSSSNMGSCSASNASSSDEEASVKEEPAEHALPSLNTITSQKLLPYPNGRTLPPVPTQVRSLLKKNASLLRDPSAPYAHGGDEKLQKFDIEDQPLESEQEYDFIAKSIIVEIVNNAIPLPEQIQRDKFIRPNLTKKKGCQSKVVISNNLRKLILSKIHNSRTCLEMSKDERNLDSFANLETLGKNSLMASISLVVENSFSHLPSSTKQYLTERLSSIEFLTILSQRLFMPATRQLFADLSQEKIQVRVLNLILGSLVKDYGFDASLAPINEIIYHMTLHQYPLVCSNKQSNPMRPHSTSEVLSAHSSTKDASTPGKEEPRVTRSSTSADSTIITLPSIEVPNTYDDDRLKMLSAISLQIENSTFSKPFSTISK
Summary of the method: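 PURExpress in vitro transcription/translation supplied GST-tagged yeast transcription factors, either full-length or DNA-binding domain. Applied at about 100-200 nM to universal all-10-mer Agilent arrays double-stranded by primer extension, the bound protein was detected with fluorescent anti-GST. E-scores, modified Wilcoxon-Mann-Whitney statistics, were given by the Universal PBM Analysis Suite to ungapped eight-base words pooled with their reverse complements after masliner normalisation.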

Sequence	PBM E-score
GCTGAGGA	-0.25
ACGGTTAG	-0.0193
AACAGCAC	-0.0633
AGGAATGC	-0.118
AATCCGAG	0.02
CTTTGACC	-0.0306
GGCCTTGA	0.103
TCTTTCAA	0.013
CGGATTCA	0.194
GCATCGGA	-0.142
AATCTCTC	-0.126
ACGTACCA	-0.339
CCCTCCTC	-0.115
ACCACTCG	0.0857
GTAGTGGA	-0.0345
AGTCTTTG	0.357
AAATAAGT	0.195
ATAGCAGC	-0.292
ATACATAC	-0.00217
ACCCTAGC	-0.144
ATGCACGA	-0.0234
CACAAACC	-0.213
ACTTCTAT	0.0533
CCTCCAGG	-0.29
AACTACAT	0.113

Sequence	PBM E-score
CTCAGGAC	0.0799
CATCTCTA	0.0447
AAGAACCG	0.0631
ACATTCCT	-0.0557
CCAGCACG	-0.31
CCCCCAAG	-0.0707
AGCCGAAC	-0.245
GACCGCAA	-0.257
GCGGTTCA	-0.0103
GCAACCTA	-0.00047
TGGGACAA	-0.137
CGCCGATC	-0.219
ATAAACAC	0.0336
GCCAAAAA	0.0564
ACGAACAG	-0.194
GCACCGCC	-0.111
ACGATCTG	-0.125
AGCAGGGC	-0.393
CTGGTATC	-0.192
CGCCCTGA	0.0302
GCATGAAA	-0.0118
GATCGGTA	0.041
AAGACATT	-0.0824
ACATGGAG	-0.0726
GAGCTCCA	-0.0442

Sequence	PBM E-score
ACAAGTGT	-0.102
AGCATCAC	-0.0522
ATAATTAA	0.213
GAGTGGCA	-0.129
AGTCTCAA	0.349
ACTACCTG	0.121
GTACACAC	0.146
ACAAGGCA	-0.128
CAGCCACG	0.138
GACAAGGA	0.0406
CTAGTGCC	-0.247
AAACTCTT	-0.0204
AGGATACA	-0.0458
GTGGCGGA	-0.0913
CCTTGGAA	-0.185
CGAAGAAG	-0.0186
GAACGGGA	-0.136
ACCCAAGC	-0.00186
AATCCGTC	-0.118
AGAAATCC	-0.262
AGGGATTA	0.00676
ACTACCAC	0.196
CCTGAGCA	-0.129
ACCGTCGA	-0.128
ATTGAGAA	0.178

Sequence	PBM E-score
GGCGTAAA	-0.13
ACCTGTCG	-0.106
CGTCGAAG	-0.0459
AGTGGTAA	0.0692
CGAAGATC	-0.0635
CGTCCATC	-0.102
TGACTAAA	0.484
CTTGATGA	0.28
CTAAATAC	0.0883
TAACCAAA	0.0296
TGGGCCCA	-0.123
ACTAGGTA	0.247
CCGACATA	0.0252
AAAAGGCT	-0.0897
ACATTGCT	-0.14
CGGTCCTA	-0.132
TGGGGAAA	0.00957
CTTGTTGA	0.228
AATTCTAA	0.00551
AAACATCG	-0.0777
CAGCATAA	-0.028
CATAAAAA	0.171
CCTAAATC	0.167
GGATTCAA	0.18
GACGAGGC	-0.209

Sequence	PBM E-score
TAGCCACA	0.14
TCTTCCAA	0.0579
AACACCTT	-0.083
AGTAGACT	0.208
GACGTTCC	-0.347
ATAGGTTA	-0.0944
GAATACTA	0.0512
AATCCGTG	-0.191
CAGGAGAA	0.0117
CGTGCGGA	0.0369
CTAGGTTC	-0.261
CACAGATG	-0.0412
GGTACACA	0.0651
CCTGTGAG	0.106
GAACCGGC	-0.259
CCTTATCA	0.0682
ACACCGCG	-0.216
ACATTCTC	0.0935
ACCCAGAC	-0.0338
GCCCATCC	-0.0789
AATCGGCT	0.0116
CTTATTAA	0.0408
CAAAGTTC	-0.253
CAGGGCAG	0.0496
AGTATTCG	-0.0987

Sequence	PBM E-score
CATTGTGC	-0.123
CGGCGGCC	-0.0839
TACTAACA	0.0931
CAGGAATC	0.313
TATAATGA	0.256
CGTATCCC	-0.26
ATTAAGTG	0.167
GGTTCAAA	0.104
CGCACCAG	0.0347
AGAACCAG	-0.126
GCGCCACC	-0.247
GCGCGGGA	-0.0795
ATTTCATC	0.0085
GCGTTACA	-0.0732
GCAGCAGA	-0.104
ATCTGTGG	-0.128
AGTACTTC	0.174
GCCCTGTA	-0.0987
GTTTTCTA	-0.0628
ATAATCCG	0.128
GCAAAAAA	-0.0402
ATTCCGGA	-0.0513
GAAAAAGA	0.0806
CCTTGGCC	-0.359
CAGAGGAG	-0.025

Sequence	PBM E-score
CAACGCTC	-0.136
GCGTTTCC	-0.283
AGTCGTAG	0.406
GCATATTA	-0.00511
GTACGTCA	-0.0319
AGCGTGAT	0.278
GAGTTCTA	0.0136
ATGATTCG	0.437
CTACCTTA	0.0146
TACAGGAA	-0.0268
CCTTTCAC	-0.187
ATTGGCCG	-0.162
CAGACGCC	-0.187
GCGTTCCA	-0.187
ATTTGCAG	-0.0944
AGGCGAAG	-0.0366
CCGCCCAA	-0.207
GGCACAAC	0.0273
CAAAGGTA	0.0773
TGTTCCAA	0.0885
ACTACTGC	0.0248
CCTCACAC	-0.0666

Source: the supplement of paper PMC3334620
